For 153 variants, enrichment ratio results are on record in a collection of fitness landscapes (doi:10.1126/science.1257360).

B1: PhoQ; a variant is named by its letters at X, in order, P23837 (parent)
chain: MKKLLRLFFPLSLRVRFLLATAAVVLVLSLAYGMVALIGYSVSFDKTTFRLLRGESNLFYTLAKWENNKLHVELPENIDKQSPTMTLIYDENGQLLWAQRDVPWLMKMIQPDWLKSNGFHEIEADVNDTSLLLSGDHSIQQQLQEVREDDDDAEMTHSVAVNVYPATSRMPKLTIVVVDTIPVELKSSYMVWSWFIYVLSANLLLVIPLLWVAAWWSLRPIEALAKEVRELEEHNRELLNPATTRELTSLVRNLNRLLKSERERYDKYRTTLTDLTHSLKTPLXXLQXXLRSLRSEKMSVSDAEPVMLEQISRISQQIGYYLHRASMRGGTLLSRELHPVAPLLDNLTSALNKVYQRKGVNISLDISPEISFVGEQNDFVEVMGNVLDNACKYCLEFVEISARQTDEHLYIVVEDDGPGIPLSKREVIFDRGQRVDTLRPGQGVGLAVAREITEQYEGKIVAGESMLGGARMEVIFGRQHSAPKDE

This is one part of the list.

This test covers variants of B1. Description: enrichment ratio after two sorts for PhoP signalling (ratio (wild type AVST 3.29)); higher = more functional. The conditions noted are these: with PhoP (E. coli).
Turning to RPQY, the enrichment ratio is at most 0.25.
The value for ATRP was at most 0.25; that for SRSL was at most 0.25; that for GWYW was at most 0.25.
With PACW, the enrichment ratio was at most 0.25.
Then FMPS, with at most 0.25.
HNEC: the enrichment ratio was at most 0.25.
The value for FNKW was at most 0.25.
The value for MGFR was at most 0.25; that for HGDP was at most 0.25.
The value for PPDP was at most 0.25; that for IYDC was at most 0.25; that for YCVK was at most 0.25.
For NMSY, the enrichment ratio is at most 0.25.
The value for VCPL was at most 0.25; that for FRVG was at most 0.25; that for FFTN was at most 0.25.
Regarding AAMM, the enrichment ratio amounted to 13.
With GDVN, the enrichment ratio was at most 0.25.
Then REVC, with at most 0.25.
Then HFWE, with at most 0.25; and ALRG, with at most 0.25.
Take SNRH: the enrichment ratio is at most 0.25.
Take QVAH: the enrichment ratio was at most 0.25.
Regarding RMDN, the enrichment ratio is at most 0.25.
Then EEDL, with at most 0.25; and LCRD, with at most 0.25; and EAPE, with at most 0.25.
The value for LLAG was at most 0.25; that for TEIG was 18.6.
Take FFNW: the enrichment ratio was at most 0.25.
The value for NDDW was at most 0.25; that for VHNH was at most 0.25; that for LQYI was at most 0.25.
The value for LHNP was at most 0.25; that for SFAC was at most 0.25; that for RCHT was at most 0.25.
The value for LQDE was at most 0.25; that for MFVW was at most 0.25; that for EEYV was at most 0.25.
With DHAW, the enrichment ratio is at most 0.25.
The value for INQD was at most 0.25; that for RCLV was at most 0.25; that for STPY was at most 0.25.
The value for RYTH was at most 0.25; that for PKHW was at most 0.25; that for SKLL was 14.
Then LAHA, with at most 0.25; and RFKW, with at most 0.25.
On to DMGR, for which the enrichment ratio was at most 0.25.
The value for SAII was 2.76; that for LHLT was at most 0.25; that for FGYF was at most 0.25.
Turning to EMWT, the enrichment ratio was at most 0.25.
Then SPQC, with at most 0.25; and SWKL, with at most 0.25.
Then YEPE, with at most 0.25; and MLPD, with at most 0.25; and NGCQ, with at most 0.25.
The value for MFSW was at most 0.25.
Take EAPY: the enrichment ratio was at most 0.25.
Then DFKN, with at most 0.25.
Then TEAW, with 3.79; and SYMK, with at most 0.25.
Then ENDV, with at most 0.25; and QLMH, with at most 0.25.
Regarding NWAR, the enrichment ratio is at most 0.25.
QRSQ: the enrichment ratio is at most 0.25.
The value for ECNI was at most 0.25; that for NVVY was at most 0.25; that for MISM was 6.82.
Then VHST, with at most 0.25.
On to YGSR, for which the enrichment ratio is at most 0.25.
Then HPIT, with at most 0.25; and WFFC, with at most 0.25.
Then VQQE, with at most 0.25; and NFTW, with at most 0.25; and NHYW, with at most 0.25.
The value for PGHL was at most 0.25.
For FPSW, the enrichment ratio amounted to 0.359.
Then PTVD, with at most 0.25; and EQQL, with 0.602; and GFLL, with at most 0.25.
The value for DDSQ was at most 0.25; that for DCWY was at most 0.25.
The value for RQAQ was at most 0.25; that for MHIG was at most 0.25.
For RPST, the enrichment ratio was at most 0.25.
The value for SFQW was at most 0.25.
Consider MRTN, for which the enrichment ratio was at most 0.25.
On to VWKA, for which the enrichment ratio was at most 0.25.
As for IRPL, the enrichment ratio was at most 0.25.
The value for NDPD was at most 0.25; that for LFHH was at most 0.25.
The value for IAFM was at most 0.25.
The value for GIIE was at most 0.25.
With HMEL, the enrichment ratio was at most 0.25.
In the case of RVSD, the enrichment ratio was at most 0.25.
Then NYGW, with at most 0.25; and SPCE, with at most 0.25; and WRCA, with at most 0.25.
Then SHWF, with at most 0.25; and IWGC, with at most 0.25; and VLAN, with at most 0.25.
On to TCQC, for which the enrichment ratio amounted to 5.67.
The value for PKQL was at most 0.25.
For HWTF, the enrichment ratio was 0.277.
The value for PWEG was at most 0.25.
Then KPKR, with at most 0.25; and LHSN, with at most 0.25.
For TEEM, the enrichment ratio was at most 0.25.
As to HLSY, the enrichment ratio is at most 0.25.
The value for TKVV was 16.7; that for ATTN was 20.6; that for QDLT was at most 0.25.
The value for SIVN was 8.13.
The value for EGWG was at most 0.25; that for DQPF was at most 0.25.
Consider YSTC, for which the enrichment ratio was at most 0.25.
Then LANH, with at most 0.25; and GREF, with at most 0.25; and IPSN, with at most 0.25.
With ERCF, the enrichment ratio was at most 0.25.
For the variant YENA, the enrichment ratio was at most 0.25.
The value for MRLF was at most 0.25.
The value for RTWT was at most 0.25; that for DIHW was at most 0.25.
Then HMFR, with at most 0.25.
Take DSAC: the enrichment ratio was at most 0.25.
For the variant HDVH, the enrichment ratio is at most 0.25.
The value for RIQK was at most 0.25.
Then KKID, with at most 0.25.
Then WGKS, with at most 0.25; and WCRR, with at most 0.25; and EDSV, with at most 0.25.
For the variant NALC, the enrichment ratio is at most 0.25.
Then AHIF, with at most 0.25; and TDIQ, with at most 0.25; and MTLD, with at most 0.25.
The value for AHYM was at most 0.25; that for DDNL was at most 0.25.
Turning to EAND, the enrichment ratio was at most 0.25.
Then AFHA, with at most 0.25; and AVRL, with at most 0.25; and FRRQ, with at most 0.25.
Turning to YLGD, the enrichment ratio is at most 0.25.
Then NFEF, with at most 0.25.
The value for WDPG was at most 0.25.
Then KHRS, with at most 0.25.
Turning to PENT, the enrichment ratio is at most 0.25.
Consider WVFG, for which the enrichment ratio is at most 0.25.
The value for LVSN was 0.301; that for LQTT was 0.639.
